# Measurements: the supplement of paper PMC8728848
# The other results are listed elsewhere or left out.
# B1: LcH (Lens culinaris), P02870 (protein)
# chain: TETTSFSITKFSPDQQNLIFQGDGYTGKEGLTLTKVSKETGGRALYSTPIHIWDRDTVNVANFVTNGSQVFRESPNGYNVADGFTFFIAPVDTKPQTGGGYLGVFYNGKEYDKTSQTVAVEFDTFYNAAWDPSNKERHIGIDVNSIKSVNTKSWNLQNGVTSYTLNEVVPLKDVVPEWVRIGFSATTGAEFAAQEVHSWSFNSQLGHTSKS
# Legend:
# Assay in all cases: glycan array binding signal (z-score within array); higher = stronger binding
# Settings in all cases: glycan notation: IUPAC condensed, linker removed
# [1] = biological target: Man(a1-2)Man(a1-2)Man(a1-3)Man
# Outline: (§1)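 Glycan array data came from 3228 arrays in the Consortium for Functional Glycomics database, and only arrays with an available protein sequence were kept. Glycan names were put into IUPAC-condensed notation, and columns mapping to the same glycan were averaged. The binding signal is a within-array Z-score, averaged across arrays of one protein sequence run at different concentrations or buffers and across linkers. A negative Z-score can be read as non-binding.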
# [2] = biological target: Man(a1-2)Man(a1-2)Man(a1-6)[Man(a1-3)]Man
# Outline: as §1
# Man(a1-2)Man(a1-3)Man = biological target: Man(a1-2)Man(a1-3)Man
# Outline: as §1
# [3] = biological target: Man(a1-2)Man(a1-3)[Man(a1-2)Man(a1-6)]Man
# Outline: as §1
# [4] = biological target: Man(a1-2)Man(a1-3)[Man(a1-2)Man(a1-6)]Man(a1-6)[Man(a1-2)Man(a1-2)Man(a1-3)]Man
# Outline: as §1
# [5] = biological target: Man(a1-2)Man(a1-3)[Man(a1-2)Man(a1-6)]Man(a1-6)[Man(a1-2)Man(a1-2)Man(a1-3)]Man(b1-4)GlcNAc(b1-4)GlcNAc
# Outline: as §1
# [6] = biological target: Man(a1-2)Man(a1-3)[Man(a1-6)]Man(a1-6)[Man(a1-2)Man(a1-3)]Man(b1-4)GlcNAc(b1-4)GlcNAc
# Outline: as §1
# [7] = biological target: Man(a1-2)Man(a1-6)[Man(a1-3)]Man(a1-6)[Man(a1-2)Man(a1-2)Man(a1-3)]Man
# Outline: as §1
# [8] = biological target: Man(a1-2)Man(a1-6)[Man(a1-3)]Man(a1-6)[Man(a1-2)Man(a1-2)Man(a1-3)]Man(b1-4)GlcNAc(b1-4)GlcNAc
# Outline: as §1
# Man(a1-3)[Man(a1-6)]Man = biological target: Man(a1-3)[Man(a1-6)]Man
# Outline: as §1
# [9] = biological target: Man(a1-3)[Man(a1-6)]Man(a1-6)[Man(a1-2)Man(a1-3)]Man(b1-4)GlcNAc(b1-4)GlcNAc
# Outline: as §1
# [10] = biological target: Man(a1-3)[Man(a1-6)]Man(a1-6)[Man(a1-3)]Man
# Outline: as §1
# [11] = biological target: Man(a1-3)[Man(a1-6)]Man(a1-6)[Man(a1-3)]Man(b1-4)GlcNAc(b1-4)GlcNAc
# Outline: as §1
# [12] = biological target: Man(a1-3)[Man(a1-6)]Man(b1-4)GlcNAc(b1-4)GlcNAc
# Outline: as §1
# Man(a1-6)Man = biological target: Man(a1-6)Man
# Outline: as §1
# Man(b1-4)GlcNAc = biological target: Man(b1-4)GlcNAc
# Outline: as §1
# Neu5Ac(a2-3)Gal = biological target: Neu5Ac(a2-3)Gal
# Outline: as §1
# [13] = biological target: Neu5Ac(a2-3)Gal(b1-3)GalNAc
# Outline: as §1
# [14] = biological target: Neu5Ac(a2-3)Gal(b1-3)GalNAc(b1-3)Gal(a1-4)Gal(b1-4)Glc
# Outline: as §1
# [15] = biological target: Neu5Ac(a2-3)Gal(b1-3)GalNAc(b1-3)Gal(b1-4)GlcNAc
# Outline: as §1
# [16] = biological target: Neu5Ac(a2-3)Gal(b1-3)GalNAc(b1-4)[Neu5Ac(a2-3)]Gal(b1-4)Glc
# Outline: as §1
# [17] = biological target: Neu5Ac(a2-3)Gal(b1-3)GalNAc6S
# Outline: as §1
# [18] = biological target: Neu5Ac(a2-3)Gal(b1-3)GlcNAc
# Outline: as §1
# [19] = biological target: Neu5Ac(a2-3)Gal(b1-3)GlcNAc(b1-3)Gal(b1-3)GlcNAc
# Outline: as §1
# [20] = biological target: Neu5Ac(a2-3)Gal(b1-3)GlcNAc6S
# Outline: as §1
# [21] = biological target: Neu5Ac(a2-3)Gal(b1-3)[Fuc(a1-4)]GlcNAc
# Outline: as §1
# [22] = biological target: Neu5Ac(a2-3)Gal(b1-3)[Fuc(a1-4)]GlcNAc(b1-3)Gal(b1-3)[Fuc(a1-4)]GlcNAc
# Outline: as §1
# [23] = biological target: Neu5Ac(a2-3)Gal(b1-3)[Fuc(a1-4)]GlcNAc(b1-3)Gal(b1-4)[Fuc(a1-3)]GlcNAc
# Outline: as §1
# [24] = biological target: Neu5Ac(a2-3)Gal(b1-3)[Neu5Ac(a2-3)Gal(b1-4)]GlcNAc
# Outline: as §1
# [25] = biological target: Neu5Ac(a2-3)Gal(b1-3)[Neu5Ac(a2-6)]GalNAc
# Outline: as §1
# Neu5Ac(a2-3)Gal(b1-4)Glc = biological target: Neu5Ac(a2-3)Gal(b1-4)Glc
# Outline: as §1
# [26] = biological target: Neu5Ac(a2-3)Gal(b1-4)GlcNAc
# Outline: as §1
# [27] = biological target: Neu5Ac(a2-3)Gal(b1-4)GlcNAc(b1-2)Man(a1-3)[GlcNAc(b1-2)Man(b1-4)GlcNAc(b1-2)Man(a1-6)]Man(b1-4)GlcNAc(b1-4)GlcNAc
# Outline: as §1
# [28] = biological target: Neu5Ac(a2-3)Gal(b1-4)GlcNAc(b1-2)Man(a1-3)[Neu5Ac(a2-6)Gal(b1-4)GlcNAc(b1-2)Man(a1-6)]Man(b1-4)GlcNAc(b1-4)GlcNAc
# Outline: as §1
# [29] = biological target: Neu5Ac(a2-3)Gal(b1-4)GlcNAc(b1-3)Gal(b1-3)GlcNAc
# Outline: as §1
# [30] = biological target: Neu5Ac(a2-3)Gal(b1-4)GlcNAc(b1-3)Gal(b1-4)GlcNAc
# Outline: as §1
# [31] = biological target: Neu5Ac(a2-3)Gal(b1-4)GlcNAc(b1-3)Gal(b1-4)GlcNAc(b1-3)Gal(b1-4)GlcNAc
# Outline: as §1
# [32] = biological target: Neu5Ac(a2-3)Gal(b1-4)GlcNAc(b1-3)Gal(b1-4)[Fuc(a1-3)]GlcNAc
# Outline: as §1
# [33] = biological target: Neu5Ac(a2-3)Gal(b1-4)GlcNAc(b1-3)GalNAc
# Outline: as §1
# [34] = biological target: Neu5Ac(a2-3)Gal(b1-4)GlcNAc(b1-6)[Gal(b1-3)]GalNAc
# Outline: as §1
# [35] = biological target: Neu5Ac(a2-3)Gal(b1-4)GlcNAc(b1-6)[Neu5Ac(a2-3)Gal(b1-3)]GalNAc
# Outline: as §1
# [36] = biological target: Neu5Ac(a2-3)Gal(b1-4)GlcNAc6S
# Outline: as §1
# [37] = biological target: Neu5Ac(a2-3)Gal(b1-4)[Fuc(a1-3)]GlcNAc
# Outline: as §1
# [38] = biological target: Neu5Ac(a2-3)Gal(b1-4)[Fuc(a1-3)]GlcNAc(b1-3)Gal
# Outline: as §1
# [39] = biological target: Neu5Ac(a2-3)Gal(b1-4)[Fuc(a1-3)]GlcNAc(b1-3)Gal(b1-4)GlcNAc
# Outline: as §1
binder,measurement,setting,value
B1,glycan array binding signal (z-score),[1],0.499
same,glycan array binding signal (z-score),[2],0.8
same,glycan array binding signal (z-score),Man(a1-2)Man(a1-3)Man,-0.089
same,glycan array binding signal (z-score),[3],1.24
same,glycan array binding signal (z-score),[4],3.73
same,glycan array binding signal (z-score),[5],-0.1
same,glycan array binding signal (z-score),[6],-0.089
same,glycan array binding signal (z-score),[7],0.076
same,glycan array binding signal (z-score),[8],-0.103
same,glycan array binding signal (z-score),Man(a1-3)[Man(a1-6)]Man,-0.127
same,glycan array binding signal (z-score),[9],1.05
same,glycan array binding signal (z-score),[10],-0.103
same,glycan array binding signal (z-score),[11],-0.115
same,glycan array binding signal (z-score),[12],-0.129
same,glycan array binding signal (z-score),Man(a1-6)Man,-0.118
same,glycan array binding signal (z-score),Man(b1-4)GlcNAc,-0.11
same,glycan array binding signal (z-score),Neu5Ac(a2-3)Gal,-0.115
same,glycan array binding signal (z-score),[13],-0.118
same,glycan array binding signal (z-score),[14],-0.115
same,glycan array binding signal (z-score),[15],-0.117
same,glycan array binding signal (z-score),[16],-0.11
same,glycan array binding signal (z-score),[17],-0.126
same,glycan array binding signal (z-score),[18],-0.118
same,glycan array binding signal (z-score),[19],-0.099
same,glycan array binding signal (z-score),[20],-0.102
same,glycan array binding signal (z-score),[21],-0.109
same,glycan array binding signal (z-score),[22],-0.088
same,glycan array binding signal (z-score),[23],-0.136
same,glycan array binding signal (z-score),[24],-0.117
same,glycan array binding signal (z-score),[25],-0.113
same,glycan array binding signal (z-score),Neu5Ac(a2-3)Gal(b1-4)Glc,-0.126
same,glycan array binding signal (z-score),[26],-0.126
same,glycan array binding signal (z-score),[27],-0.112
same,glycan array binding signal (z-score),[28],-0.113
same,glycan array binding signal (z-score),[29],-0.114
same,glycan array binding signal (z-score),[30],-0.13
same,glycan array binding signal (z-score),[31],-0.142
same,glycan array binding signal (z-score),[32],-0.111
same,glycan array binding signal (z-score),[33],-0.093
same,glycan array binding signal (z-score),[34],-0.122
same,glycan array binding signal (z-score),[35],-0.129
same,glycan array binding signal (z-score),[36],-0.115
same,glycan array binding signal (z-score),[37],-0.118
same,glycan array binding signal (z-score),[38],-0.119
same,glycan array binding signal (z-score),[39],-0.046
